# The list shows a part of the results. At the low end of the ranking, values are background and their order means little.
# Biological target: SIX1-Q177R homeodomain (UniProt Q15475)
# Assay: universal protein binding microarray
# Settings: Universal all-10-mer PBM (8x60K, AMADID 030236), 300 nM GST-tagged protein, Alexa Fluor 488 anti-GST; buffer, salt, pH and temperature not stated; high values mean tight binding; most listed sequences are background and not binding sites; double strand, one strand shown
row,Sequence,binding signal [E-score]
1,AATACTGG,0.0782
2,CAATATTA,-0.0679
3,CACAGAGA,0.011
4,CCAGCAGA,-0.101
5,TAAGTGTA,0.373
6,ACTCAATC,0.0646
7,ATGTTTGA,-0.32
8,AGCAATAA,-0.32
9,CCTGGCGC,-0.13
10,GATCTCCC,0.0071
11,ACCGTGAT,0.0595
12,GATAGGCC,-0.137
13,AACGAGTC,-0.0912
14,ATCATCGC,-0.208
15,ATCACTAC,-0.0323
16,CGAGACGA,-0.0076
17,AAGCGAGT,0.124
18,AGGCGCAA,-0.189
19,GGTAAACC,-0.0198
20,CTGCAACA,0.0909
21,AGCAGAAA,-0.158
22,AGTGCGAA,-0.0812

row,Sequence,binding signal [E-score]
1,CAGTACAC,0.433
2,GTAAGGGA,0.0919
3,ACGGTGTC,0.488
4,ACGAACCG,-0.0227
5,AACAACCG,-0.179
6,CCGGTGGC,0.0915
7,GAATAACA,0.151
8,CGGCTCAG,-0.0611
9,GGCCTTCA,-0.097
10,ACTGAGAA,-0.11
11,AAAGGGGT,0.162
12,TATTTTAA,-0.104
13,AAGCAACT,-0.206
14,CTTCATAA,-0.222
15,ACAATCGA,-0.247
16,CCTGTTTA,-0.107
17,ATACGACA,0.18
18,ACCAAAGC,-0.0868
19,ATCGGCTA,-0.0549
20,GATCTCGA,-0.119
21,CGGTATGC,-0.149
22,GGATATAC,0.0751

row,Sequence,binding signal [E-score]
1,ACAGCTGC,-0.279
2,AACAGTAT,-0.283
3,GTATCAGA,0.284
4,GATACCAA,0.263
5,ACCACTAT,-0.028
6,ATTGGAAG,-0.139
7,AGATCCCT,0.0983
8,CGCGGTAG,-0.087
9,AATTACGG,-0.331
10,AGTGTGTA,0.285
11,CGTATAAC,-0.109
12,ATGGAGGA,-0.0217
13,CGGGAGAG,0.151
14,CCTAACAC,0.404
15,AGTACAAC,-0.0102
16,CAGGCGGG,0.107
17,GAATCTCC,-0.0498
18,CCAGTACC,0.184
19,CTTCCTCC,-0.224
20,AGTGTTCG,0.369
21,TTAGGGAA,-0.125
22,ACGTGAGG,0.053

row,Sequence,binding signal [E-score]
1,GGCACTCA,-0.0534
2,AAGGGAGT,0.181
3,CTTATGTC,-0.0544
4,GCCGCGCC,-0.136
5,ACCATTAA,-0.0164
6,CCGTAAAA,-0.127
7,AGCTCGCG,-0.224
8,ACGCGTGC,0.0289
9,AATCGATC,-0.184
10,GCACTGGC,0.12
11,AAAGCAAT,0.15
12,ATGAGACC,0.134
13,AGAACGGA,0.142
14,GTGGTCAA,-0.272
15,AGTCTAGG,-0.138
16,CATTGCTA,-0.268
17,AAACTTGG,-0.0654
18,AGAGACGA,0.0597
19,TTGCAAAA,-0.291
20,GCGTCAGC,0.0683
21,AATACAGC,-0.249
22,CTGAACAG,-0.208

row,Sequence,binding signal [E-score]
1,CGAGGTAG,-0.0624
2,CAGGACTG,-0.192
3,TCGGAAGA,0.0788
4,TCAAAAGA,-0.125
5,CTTGCGAC,-0.0621
6,GTATATAC,0.143
7,GACGTCGA,-0.191
8,CTATTCTA,-0.0797
9,GGAACAAC,-0.111
10,ACCGCGCC,0.0362
11,ACTCAAAT,-0.224
12,ACAGCTAG,0.0937
13,ATCACGCG,-0.165
14,AAACGGTG,0.308
15,AACGCTTC,-0.207
16,GAATGATA,-0.118
17,GATAGGTA,0.0405
18,CCTATGTC,-0.186
19,AGACGACC,0.0419
20,ATGAGATA,0.0584
21,AACGCATG,-0.243

# Reference: publication PMC10668032
